Measurements from PubChem BioAssay (Tox21).
Where “and” joins values, the source holds several entries; their conditions need not be identical. Identical values can stand only once. The inconclusive results got no clear call from the source; some entries with a clear call stand among them for comparison. For some assays here: A potency beside an inconclusive call is a rough fit, not a confirmed value. Calls of active or inactive are those of the source. Unless noted, calls follow the shape of the dose curve; as a rule, active = well fitted curve in the direction sought with a large enough effect in the repeat runs; inconclusive = weak or mixed curves; inactive = no such curve, though single readings can be large; an effect the other way counts as inactive or inconclusive.

Tests used:
[1] = qHTS assay to identify small molecule that activate the aryl hydrocarbon receptor (AhR) signaling pathway - cell viability counter screen (AID 743086); also: nearly all actives have a fitted effect of over 45% in size;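 as to viability change, negative = cytotoxic: HepG2 liver cells carrying the AhR DRE luciferase reporter; % is scaled to controls: 0 for no effect and ±100 for the full control effect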
Procedure, shortened: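 Cytotoxicity counter screen: CellTiter-Fluor signal (30 min, 37 C) in 4000 HepG2 cells/well carrying the DRE-luciferase reporter, following 24 h compound exposure at 37 C.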

[2] = target: Peroxisome proliferator-activated receptor gamma (Homo sapiens) (UniProt P37231); test: qHTS assay to identify small molecule antagonists of the peroxisome proliferator-activated receptor gamma (PPARg) signaling pathway (AID 743191; calls by dose curve; also: nearly all actives have a fitted effect of over 30% in size; as to ratio activity, negative = inhibition: % is scaled to controls: 0 for no effect and ±100 for the full control effect); details: HEK293H PPARg-UAS-bla, beta-lactamase ratio, antagonist, 17 h; ratio activity, negative = inhibition: at 62.6 µM (top of the series) unless noted
UniProt P37231, sequence (P37231 whole entry, looked up): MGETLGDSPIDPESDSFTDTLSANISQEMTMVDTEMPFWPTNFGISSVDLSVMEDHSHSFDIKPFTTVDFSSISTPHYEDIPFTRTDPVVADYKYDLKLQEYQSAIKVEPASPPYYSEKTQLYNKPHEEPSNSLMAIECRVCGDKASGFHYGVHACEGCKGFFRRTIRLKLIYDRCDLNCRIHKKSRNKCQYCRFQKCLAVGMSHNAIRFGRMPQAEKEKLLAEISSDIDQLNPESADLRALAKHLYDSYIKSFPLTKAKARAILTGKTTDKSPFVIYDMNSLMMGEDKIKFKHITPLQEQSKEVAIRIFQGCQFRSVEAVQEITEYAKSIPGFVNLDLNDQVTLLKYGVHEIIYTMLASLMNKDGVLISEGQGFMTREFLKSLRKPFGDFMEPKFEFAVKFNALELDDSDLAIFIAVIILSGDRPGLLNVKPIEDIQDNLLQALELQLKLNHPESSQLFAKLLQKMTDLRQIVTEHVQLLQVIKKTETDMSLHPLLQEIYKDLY
Procedure, shortened: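 Beta-lactamase reporter under UAS control in HEK293H PPARg-bla cells; compound treatment 17 h at 37C. Read-out: fluorescence intensity after 1 h room-temperature incubation with LiveBLAzer B/G FRET substrate.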

[3] = qHTS assay to identify small molecule antagonists of the peroxisome proliferator-activated receptor gamma (PPARg) signaling pathway - cell viability counter screen (AID 743194); details: PPARg-bla HEK293H viability, CellTiter-Glo luminescence, 17 h, co-treated with 50 nM rosiglitazone; activity change, negative = cytotoxicity: at 62.6 µM (top of the series); also: nearly all actives have a fitted effect of over 55% in size
Procedure, shortened: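 Viability was measured as CellTiter-Glo luminescence in GeneBLAzer PPARg UAS-bla HEK293H cells. These cells had been exposed 17 h at 37 C to compounds together with rosiglitazone at 50 nM final, with the beta-lactamase readout taken in the same wells.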

[4] = target: Peroxisome proliferator-activated receptor delta (Homo sapiens) (UniProt Q03181); test: qHTS assay to identify small molecule antagonists of the peroxisome proliferator-activated receptor delta (PPARd) signaling pathway (AID 743215; active = well fitted inhibition curve with a large enough effect in the signal ratio in the repeat runs, not every such curve was filed as active; inconclusive = weak or mixed curves, or effect the other way; inactive = no such curve, though single readings can be large or run the other way; the % refers to the signal ratio; as to ratio activity, negative = inhibition: % is scaled to controls: 0 for no effect and ±100 for the full control effect); details: HEK293H PPARd-UAS-bla, beta-lactamase FRET ratio, antagonist, 17 h; ratio activity, negative = inhibition: at 62 µM (top of the series) unless noted
UniProt Q03181, sequence (Q03181 whole entry, looked up): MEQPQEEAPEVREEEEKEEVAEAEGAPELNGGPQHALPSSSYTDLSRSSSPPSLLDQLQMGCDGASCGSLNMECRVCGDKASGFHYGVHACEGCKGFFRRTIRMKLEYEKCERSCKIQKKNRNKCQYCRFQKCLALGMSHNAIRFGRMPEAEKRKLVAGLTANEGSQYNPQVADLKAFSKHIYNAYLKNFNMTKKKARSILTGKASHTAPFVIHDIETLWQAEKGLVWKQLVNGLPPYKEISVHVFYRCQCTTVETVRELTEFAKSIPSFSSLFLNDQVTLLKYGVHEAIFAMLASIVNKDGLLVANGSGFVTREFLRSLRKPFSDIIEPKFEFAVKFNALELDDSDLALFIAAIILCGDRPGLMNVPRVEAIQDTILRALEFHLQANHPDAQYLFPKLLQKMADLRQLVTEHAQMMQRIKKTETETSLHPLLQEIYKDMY
Procedure, shortened: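 HEK293H UAS-bla, PPARd; agonist L165041 300 nM final with cpd in DMSO; 37 C 17 h; FRET substrate, RT 2 h; fluorescence intensity.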

[5] = qHTS assay to identify small molecule agonists of the farnesoid-X-receptor (FXR) signaling pathway - cell viability counter screen (AID 743218); details: FXR-bla HEK293T viability, CellTiter-Glo luminescence, 16 h; viability change, negative = cytotoxic: at 62.6 µM (top of the series) unless noted; also: nearly all actives have a fitted effect of over 45% in size
Procedure, shortened: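 Parallel cytotoxicity test: compound-treated (16 h, 37 C) HEK 293T FXR-bla reporter cells were lysed with CellTiter-Glo and luminescence recorded.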

[6] = target: Peroxisome proliferator-activated receptor gamma (Homo sapiens) (UniProt P37231); test: qHTS assay to identify small molecule agonists of the peroxisome proliferator-activated receptor gamma (PPARg) signaling pathway (AID 743094; active = well fitted activation curve with a large enough effect in the signal ratio in the repeat runs, not every such curve was filed as active; inconclusive = weak or mixed curves, or effect the other way; inactive = no such curve, though single readings can be large or run the other way; the % refers to the signal ratio); details: HEK293H PPARg-UAS-bla, beta-lactamase FRET ratio, 17 h; activation: at 57 µM (top of the series) unless noted
Procedure, shortened: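 Compounds dissolved in DMSO were added to PPARg UAS-bla HEK293H cells for 17 h at 37C, and reporter expression was quantified by fluorescence intensity after 1 h with LiveBLAzer B/G FRET substrate.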

[7] = qHTS assay for small molecule activators of the heat shock response signaling pathway - cell viability counter screen (AID 743209); details: HSE-bla HeLa viability, CellTiter-Glo luminescence, 5 h; activity change, negative = cytotoxicity: at 62.6 µM (top of the series); also: nearly all actives have a fitted effect of over 50% in size
Procedure, shortened: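 Readout: CellTiter-Glo luminescence, 30 min at room temperature. System: HSE-bla HeLa cells, 1500/well, plated overnight. Treatment: compounds in DMSO, 5 h at 37 C.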

[8] = qHTS assay for small molecule activators of the heat shock response signaling pathway (AID 743210; active = well fitted activation curve with a large enough effect in the signal ratio in the repeat runs, with a control signal flat, not every such curve was filed as active; inconclusive = weak or mixed curves; the % refers to the signal ratio); details: HeLa HSE-bla reporter, beta-lactamase ratio, 5 h; activation: at 62.6 µM (top of the series)
Procedure, shortened: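 HeLa HSE-bla cells, overnight plating; cpd in DMSO 5 h, 37 C; LiveBLAzer B/G FRET substrate 2.5 h RT; fluorescence intensity read.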

[9] = qHTS assay to identify small molecule antagonists of the peroxisome proliferator-activated receptor delta (PPARd) signaling pathway - cell viability counter screen (AID 743213); details: PPARd-bla HEK293H viability, CellTiter-Glo luminescence, 17 h; viability change, negative = cytotoxic: at 62 µM (top of the series) unless noted; also: nearly all actives have a fitted effect of over 50% in size
Procedure, shortened: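 Agonist-stimulated (L165041, 300 nM final) HEK293H PPARd UAS-bla cells are exposed to compounds for 17 h at 37 C, and ATP-based luminescence (CellTiter-Glo) from the same wells reports cytotoxicity.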

[10] = target: Vitamin D3 receptor (Homo sapiens) (UniProt P11473); test: qHTS assay to identify small molecule agonists of the vitamin D receptor (VDR) signaling pathway (AID 743222; calls by dose curve; as to activation: % is scaled to controls: 0 for no effect and ±100 for the full control effect); details: HEK293T VDR-UAS-bla, beta-lactamase FRET ratio, 16 h; activation: at 63.5 µM (top of the series) unless noted
UniProt P11473, sequence (P11473 whole entry, looked up): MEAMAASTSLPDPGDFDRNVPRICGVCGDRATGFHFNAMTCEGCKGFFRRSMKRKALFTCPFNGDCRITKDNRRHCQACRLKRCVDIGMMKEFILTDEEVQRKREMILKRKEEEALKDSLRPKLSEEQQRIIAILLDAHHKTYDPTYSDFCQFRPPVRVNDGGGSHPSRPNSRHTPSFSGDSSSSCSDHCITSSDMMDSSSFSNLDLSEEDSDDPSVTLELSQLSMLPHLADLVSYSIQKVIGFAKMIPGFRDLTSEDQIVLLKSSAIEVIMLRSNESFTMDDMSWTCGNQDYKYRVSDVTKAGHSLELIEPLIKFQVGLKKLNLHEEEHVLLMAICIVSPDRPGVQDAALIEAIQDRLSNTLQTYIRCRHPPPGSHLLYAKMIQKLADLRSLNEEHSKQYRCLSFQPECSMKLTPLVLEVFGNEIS
Procedure, shortened: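 In VDR-bla cells, compound-induced beta-lactamase expression is quantified by FRET substrate fluorescence. Treatment lasts 16 h at 37C; substrate develops 2 h at room temperature.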

[11] = qHTS assay for small molecule agonists of the antioxidant response element (ARE) signaling pathway (AID 743202; active = well fitted activation curve with a large enough effect in the signal ratio in the repeat runs, not every such curve was filed as active; inconclusive = weak or mixed curves, or effect the other way; inactive = no such curve, though single readings can be large or run the other way; the % refers to the signal ratio); details: HepG2 ARE-bla reporter, beta-lactamase FRET, 16 h; activation: at 73.3 µM (top of the series) unless noted
Procedure, shortened: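 Quantitative high-throughput format in HepG2 cells bearing an integrated ARE-beta-lactamase reporter. Compound exposure lasted 16 h at 37 C, and fluorescence was read 2 h after adding LiveBLAzer B/G substrate at room temperature.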

[12] = qHTS assay to identify small molecule agonists of the peroxisome proliferator-activated receptor delta (PPARd) signaling pathway - cell viability counter screen (AID 743211); details: PPARd-bla HEK293H viability, CellTiter-Glo luminescence, 17 h; activity change, negative = cytotoxicity: at 62.6 µM (top of the series); also: nearly all actives have a fitted effect of over 55% in size
Procedure, shortened: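 Read-out: CellTiter-Glo luminescence, 30 min RT, measured in the same wells as the beta-lactamase reporter. Cells: GeneBLAzer PPAR delta UAS-bla HEK293H, 3000 cells/well, compound exposure 17 h at 37C.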

[13] = target: Bile acid receptor (Homo sapiens) (UniProt Q96RI1); test: qHTS assay to identify small molecule antagonists of the farnesoid-X-receptor (FXR) signaling pathway (AID 743217; active = well fitted inhibition curve with a large enough effect in the signal ratio in the repeat runs, not every such curve was filed as active; inconclusive = weak or mixed curves, or effect the other way; inactive = no such curve, though single readings can be large or run the other way; the % refers to the signal ratio); details: HEK293T FXR-UAS-bla, beta-lactamase ratio, CDCA-stimulated, 16 h; activity change, negative = inhibition: at 62.6 µM (top of the series) unless noted
UniProt Q96RI1, sequence (Q96RI1 whole entry, looked up): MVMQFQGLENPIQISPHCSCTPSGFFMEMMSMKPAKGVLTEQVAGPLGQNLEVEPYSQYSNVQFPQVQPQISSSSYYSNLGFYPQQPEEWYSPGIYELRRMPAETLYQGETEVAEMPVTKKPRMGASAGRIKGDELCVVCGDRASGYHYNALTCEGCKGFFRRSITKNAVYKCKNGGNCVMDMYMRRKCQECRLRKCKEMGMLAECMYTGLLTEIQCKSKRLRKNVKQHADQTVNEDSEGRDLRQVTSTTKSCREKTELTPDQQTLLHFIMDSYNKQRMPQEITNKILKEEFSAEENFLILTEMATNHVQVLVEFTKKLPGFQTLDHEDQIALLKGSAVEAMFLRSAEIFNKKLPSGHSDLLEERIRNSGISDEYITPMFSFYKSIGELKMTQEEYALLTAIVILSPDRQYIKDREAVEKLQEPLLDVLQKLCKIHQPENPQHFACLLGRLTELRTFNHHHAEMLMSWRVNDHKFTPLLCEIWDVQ
Procedure, shortened: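 GeneBLAzer FXR-UAS-bla HEK 293T, CDCA-stimulated (50 uM final). Compound treatment 16 h, 37 °C. Detection: beta-lactamase cleavage of B/G FRET substrate, fluorescence.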

[14] = target: Vitamin D3 receptor (Homo sapiens) (UniProt P11473); test: qHTS assay to identify small molecule antagonists of the vitamin D receptor (VDR) signaling pathway (AID 743223; active = well fitted inhibition curve with a large enough effect in the signal ratio in the repeat runs, not every such curve was filed as active; inconclusive = weak or mixed curves, or effect the other way; inactive = no such curve, though single readings can be large or run the other way; the % refers to the signal ratio); details: VDR-UAS-bla HEK293T, beta-lactamase FRET ratio, 16 h; activity change, negative = inhibition: at 61 µM (top of the series) unless noted
Procedure, shortened: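 Beta-lactamase reporter read-out: FRET substrate fluorescence after 2 h at room temperature, following 16 h exposure of VDR-bla cells to test compound plus 3 nM (final) 1alpha,25-dihydroxyvitamin D3 agonist at 37C.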

[15] = qHTS assay for small molecule agonists of the antioxidant response element (ARE) signaling pathway - cell viability counter screen (AID 743203; calls by dose curve; also: nearly all actives have a fitted effect of over 55% in size); details: ARE-bla HepG2 viability, CellTiter-Glo luminescence, 16 h; viability change, negative = cytotoxic: at 73.3 µM (top of the series)
Procedure, shortened: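 Following 16 hrs of compound treatment at 37C, HepG2 cells with an ARE-controlled beta-lactamase gene were lysed with CellTiter-Glo. Luminescence was read after 30 min at room temperature.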

[16] = target: Peroxisome proliferator-activated receptor delta (Homo sapiens) (UniProt Q03181); test: qHTS assay to identify small molecule agonists of the peroxisome proliferator-activated receptor delta (PPARd) signaling pathway (AID 743212; calls by dose curve); details: HEK293H PPARd-UAS-bla, beta-lactamase FRET ratio, 17 h; activation: at 62.6 µM (top of the series) unless noted
Procedure, shortened: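 HEK293H PPARd-bla cells; 5 h preincubation 37 C/5% CO2; compound (DMSO) 37 C; LiveBLAzer B/G FRET substrate 2 h RT; fluorescence intensity.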

[17] = target: Bile acid receptor (Homo sapiens) (UniProt Q96RI1); test: qHTS assay to identify small molecule agonists of the farnesoid-X-receptor (FXR) signaling pathway (AID 743220; active = well fitted activation curve with a large enough effect in the signal ratio in the repeat runs, not every such curve was filed as active; inconclusive = weak or mixed curves, or effect the other way; the % refers to the signal ratio); details: HEK293T FXR-UAS-bla, beta-lactamase FRET ratio, 16 h; activation: at 62.6 µM (top of the series) unless noted
Procedure, shortened: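 Beta-lactamase reporter under UAS control in GeneBLAzer FXR HEK 293T cells (5000/well) measured with LiveBLAzer FRET substrate after 2 h at room temperature. Compound exposure lasted 16 h at 37C.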

[18] = qHTS assay to identify small molecule antagonists of the farnesoid-X-receptor (FXR) signaling pathway - cell viability counter screen (AID 743221; active = well fitted cell-killing curve with a large enough effect in the repeat runs, not every such curve was filed as active; inconclusive = weak or mixed curves, or effect the other way; inactive = no such curve, though single readings can be large or run the other way; also: nearly all actives have a fitted effect of over 50% in size); details: FXR-bla HEK293T viability, CellTiter-Glo luminescence, 16 h; activity change, negative = cytotoxicity: at 62.6 µM (top of the series)
Procedure, shortened: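 HEK 293T FXR-bla cells, 5 h pre-incubation; compound + CDCA 50 uM final, 16 h, 37 C; beta-lactamase FRET read first, then CellTiter-Glo luminescence, 30 min RT.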
Potency is read from the fitted curve at half-maximal effect; tags tell the direction and shape of the fitted curve or compound fluorescence and quenching.

CCOC(=O)NCCOc1ccc(Oc2ccccc2)cc1
inconclusive: Potency [3] 4.36 µM [cytotoxic, full curve, poor fit] | ratio activity, negative = inhibition [4] -12% | Potency [5] 3.47 µM [rising, partial curve]
inactive: Potency [1]
active: Potency [2] 38.9 µM

C=CC(=O)OCC(CO)(COC(=O)C=C)COC(=O)C=C
inconclusive: Potency [6] 19.6 µM [fluorescent, partial curve, poor fit] and 12.3 µM [fluorescent, single point] | Potency [8] 10.2 µM and 6.66 µM | Potency [10] 17.4 µM [falling, full curve, poor fit] | activation [10] 17% [at 81.1 µM]
active: Potency [1] 13.7 µM and 27.3 µM | Potency [3] 11 µM and 4.36 µM | Potency [7] 3.9 µM and 2.45 µM | Potency [9] 19.6 µM and 13.8 µM | Potency [5] 19.6 µM and 17.4 µM

O=S(=O)(c1cccc2cnccc12)N1CCCNCC1
inconclusive: Potency [6] 26.8 µM [fluorescent] | Potency [11] 10.6 µM [falling, partial curve] | Potency [12] 5.96 µM [cytotoxic, single point] | ratio activity, negative = inhibition [4] -37.9% | Potency [13] 13.3 µM [inhibitor, partial curve, poor fit] | Potency [5] 0.15 µM [rising, full curve, poor fit] | activity change, negative = inhibition [14] -23%
inactive: Potency [1] | Potency [2]

NC(=O)c1ccncc1
inactive: Potency [1] | Potency [6] | Potency [2] | Potency [4]
inconclusive: Potency [5] 0.91 µM [rising, partial curve, poor fit]

CCN(Cc1cccnc1)C(=O)c1cccc(Cl)c1[C@]1(C)C(=O)N(Cc2ccc(OC)cc2OC)c2ccc(Cl)cc21
inconclusive: Potency [6] 18.2 µM [cytotoxic, full curve] | ratio activity, negative = inhibition [2] 43.7% | Potency [11] 14.3 µM [falling, full curve] | Potency [8] 12.9 µM | Potency [16] 16.2 µM [falling, full curve] | Potency [4] 22.9 µM [cytotoxic] | Potency [13] 5.13 µM [rising, partial curve] | Potency [17] 14.5 µM [falling, full curve] | Potency [14] 57.6 µM [activator, single point]
active: Potency [1] 11.4 µM | Potency [15] 5.09 µM | Potency [9] 5.13 µM | Potency [5] 3.63 µM | Potency [10] 45.8 µM

C=C1C(=C/C=C2\CCC[C@]3(C)[C@@H]([C@H](C)/C=C/[C@@H](O)C4CC4)CC[C@@H]23)C[C@@H](O)C[C@@H]1O
active: Potency [3] 26.6 µM | Potency [11] 2.66 µM | Potency [13] 29.8 µM
inconclusive: Potency [6] 23.9 µM | Potency [2] 23.7 µM [rising, partial curve] | Potency [15] 33.5 µM [cytotoxic, single point] | Potency [7] 33.5 µM [cytotoxic, single point] | Potency [8] 32.2 µM | Potency [12] 33.5 µM [cytotoxic, single point] | Potency [16] 33.5 µM | Potency [9] 33.5 µM [cytotoxic, single point] | Potency [4] 33.5 µM [inhibitor, single point] | Potency [5] 33.5 µM [cytotoxic, single point] | Potency [18] 33.5 µM [falling, single point]

Cc1oc(C)c(C(=O)Nc2ccccc2)c1C
inactive: Potency [7] | Potency [12]
inconclusive: activation [6] -13.6% | Potency [11] 43.3 µM [rising, partial curve] | Potency [9] 9.77 µM [cytotoxic, full curve] | ratio activity, negative = inhibition [4] -43.5% | Potency [18] 21.9 µM [falling, partial curve, poor fit]
active: Potency [2] 24.5 µM

C=CC(C)(C)C
inactive: Potency [11] | Potency [12] | Potency [10]
inconclusive: activation [6] -2.81% | Potency [2] 50.7 µM [single point] | ratio activity, negative = inhibition [2] -0.653% | Potency [9] 35.9 µM [cytotoxic, partial curve, poor fit] | ratio activity, negative = inhibition [4] -14% [fluorescent] | Potency [5] 0.0064 µM [rising, full curve, poor fit] | activity change, negative = inhibition [14] 1.83%
